# Measurements: the supplement of paper PMC5919970
# Counter-ions that a name gives are not always drawn. The full ranking holds about 2,000 compounds; the median of “fractional viability relative to vehicle” is about 0.91, and the lowest 2% start at about 0.045. Some of the results follow.
# System: TYKNU
# Experiment: fractional viability relative to vehicle; TYKNU is a high-grade serous ovarian cancer line; higher = less growth inhibition
# Details: 72 h
# Summary of the method: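 TYKNU control cells or lentiCRISPRv2 knockout derivatives were plated at 500 cells per well in duplicate into drug-stamped 384-well plates holding a ~2100-compound library at 2 or 10 μM. Culture was in RPMI 1640 with 10% FBS at 37 °C in 5% CO2, with 72 h of drug treatment. Viability was measured by Cell Titer Glo luminescence, and the averaged duplicate treatment wells were normalised to duplicate control wells at the same plate position.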
# [1] = 2uM, genotype: DNM1L knockout (sgDNM1L #1)
# [2] = 2uM, genotype: sgCTRLA1 (non-targeting control)
# [3] = 10uM, genotype: DNM1L knockout (sgDNM1L #1)
# [4] = 10uM, genotype: sgCTRLA1 (non-targeting control)
SMILES,fractional viability [1],fractional viability [2],fractional viability [3],fractional viability [4]
CCCOc1ccc(C(=O)OCCN(CC)CC)cc1N [Proparacaine HCl],1.04,0.953,0.991,0.996
CC(=O)OCC(=O)[C@H]1CC[C@H]2[C@@H]3CCC4=CC(=O)CC[C@]4(C)[C@H]3CC[C@]12C [Deoxycorticosterone acetate],0.872,1.13,0.785,1.06
Cn1cc(-c2ccc3c(c2)CCN3C(=O)Cc2cccc(C(F)(F)F)c2)c2c(N)ncnc21,0.883,1.04,0.492,0.477
Oc1cccc(-c2nc(N3CCOCC3)c3oc4ncccc4c3n2)c1,0.305,0.288,0.213,0.223
N#C/C(=C\c1ccc(O)c(O)c1)C(=O)NCc1ccccc1 [AG-490 (Tyrphostin B42)],0.921,1.01,0.84,0.99
C#C[C@]1(O)CC[C@H]2[C@@H]3CCC4=CC(=O)CC[C@@H]4[C@H]3CC[C@@]21CC [Levonorgestrel],0.936,1.15,0.851,1.08
O=C(/C=C/c1ccc(O)c(O)c1)O[C@@H]1C[C@](O)(C(=O)O)C[C@@H](O)[C@H]1O [Chlorogenic Acid],0.91,0.956,0.88,1.09
C[C@@H]1COC(Nc2ccc3ncnc(Nc4ccc(OCc5nccs5)c(Cl)c4)c3c2)=N1 [Varlitinib],1.34,1.16,0.358,0.345
CC/C(=C(/CC)c1ccc(O)cc1)c1ccc(O)cc1 [Diethylstilbestrol],0.885,1.14,0.688,0.952
CC1=C(/C=C/C(C)=C/C=C/C(C)=C\C(=O)O)C(C)(C)CCC1 [Isotretinoin],1.01,1.08,0.71,1.07
NC(N)=Nc1nc(CSCC/C(N)=N/S(N)(=O)=O)cs1 [Famotidine],1.11,1.07,0.882,1.03
C/C(=C\c1ccc(C(=O)O)cc1)c1ccc2c(c1)C(C)(C)CCC2(C)C [TTNPB (Arotinoid Acid)],0.924,1.14,0.81,1.11
COc1ccc(-c2ccc3c(N4CCOCC4)nc(N4C[C@@H](C)O[C@@H](C)C4)nc3n2)cc1CO,0.351,0.377,0.217,0.232
OC(CN1CCN(c2cccc(Cl)c2)CC1)C(c1ccccc1)c1ccccc1 (configuration not stated),0.96,1.02,0.831,1.05
CN(C)[C@@H]1C(O)=C(C(N)=O)C(=O)[C@@]2(O)C(O)=C3C(=O)c4c(O)cccc4[C@@](C)(O)[C@H]3[C@H](O)[C@@H]12 [Oxytetracycline Dihydrate],0.844,1.18,1.1,1.06
CN(C)[C@@H]1C(O)=C(C(N)=O)C(=O)[C@@]2(O)C(O)=C3C(=O)c4c(O)cccc4[C@@](C)(O)[C@H]3[C@H](O)[C@@H]12 [Oxytetracycline (Terramycin)],0.957,1.04,0.954,0.951
COc1cc(OC)c(/C=C/S(=O)(=O)Cc2ccc(OC)c(NCC(=O)O)c2)c(OC)c1,0.182,0.164,0.156,0.138
CCCCCCCc1ccc(CCc2cccc(O)c2C(=O)O)cc1,0.825,1.04,0.896,0.765
Cc1ccc([N+](=O)[O-])cc1S(=O)(=O)N(C)/N=C/c1cnc2ccc(Br)cn12,0.244,0.289,0.212,0.161
Cc1noc(C)c1-c1ccc(-c2cc(C(N)=O)c(NC(N)=O)s2)c(O[C@H]2CCNC2)c1,0.787,0.967,0.867,0.756

SMILES,fractional viability [1],fractional viability [2],fractional viability [3],fractional viability [4]
CN1CCN(c2c(F)cc3c(=O)c(C(=O)O)cn4c3c2OCN4C)CC1 [Marbofloxacin],1.13,1.21,0.971,1.01
CCCCCCCCCCCCc1ccc(S(=O)(=O)Nc2nncs2)cc1,0.997,1.07,0.843,0.966
CCN(CC)CCOC(=O)C(c1ccccc1)c1ccccc1 [Adiphenine HCl],0.978,1.15,0.867,1.18
OC(CCCN1CCCCC1)(c1ccccc1)c1ccccc1 [Diphenidol HCl],0.756,1.12,0.697,1.06
C[C@H]1[C@H](C)CC[C@]2(C(=O)O)CC[C@]3(C)C(=CC[C@@H]4[C@@]5(C)C[C@@H](O)[C@H](O)[C@@](C)(CO)[C@@H]5CC[C@]43C)[C@H]12 [Asiatic Acid],0.871,1.06,0.71,1.09
CCOC(=O)c1ccc(N)cc1 [Benzocaine],0.909,1.12,0.81,1.09
Cc1ncc(Cl)cc1NCc1ccc(C(=O)N[C@@H](CC2CCCC2)C(=O)NC2CC2)s1,0.845,0.992,0.838,0.778
C=CC(C)(C)c1cc(/C=C/C(=O)c2ccc(O)cc2)c(OC)cc1O [Licochalcone A],0.895,0.99,0.641,0.65
O=C(CCCCCCC(=O)Nc1ccc([C@H]2O[C@@H](CSc3nc(-c4ccccc4)c(-c4ccccc4)o3)C[C@@H](c3ccc(CO)cc3)O2)cc1)NO [Tubacin],0.862,1.16,0.362,0.316
COc1cc(C(C)=O)ccc1O [Apocynin],1.01,0.937,0.799,0.882
Nc1cc(F)ccc1NC(=O)/C=C/c1cnn(C/C=C/c2ccccc2)c1,0.803,1.06,0.819,0.94
CN(Cc1cnc2nc(N)nc(N)c2n1)c1ccc(C(=O)N[C@@H](CCC(=O)O)C(=O)O)cc1 [Methotrexate],0.281,0.368,0.251,0.36
CCOc1ccc2nc3cc(N)ccc3c(N)c2c1 [Ethacridine lactate monohydrate],0.688,0.997,0.152,0.436
O=C1NC(=O)/C(=C/c2ccc3c(c2)OC(F)(F)O3)S1,0.955,1.1,0.763,1.02
CCOc1ccccc1OC(c1ccccc1)C1CNCCO1 (configuration not stated) [Reboxetine mesylate],1.04,1.08,0.808,0.947
O=c1[nH]cnc2c1ncn2[C@@H]1O[C@H](CO)[C@@H](O)[C@H]1O [Inosine],1.07,1.01,1.05,1.06
COc1cc([C@@H]2c3cc4c(cc3[C@@H](O[C@@H]3O[C@@H]5CO[C@@H](c6cccs6)O[C@H]5[C@H](O)[C@H]3O)[C@H]3COC(=O)[C@H]23)OCO4)cc(OC)c1O [Teniposide],0.234,0.195,0.0825,0.0721
O=c1ccc2ccccc2o1 [Coumarin],0.708,0.897,0.743,0.91
Nc1nc(=S)c2ncn([C@H]3C[C@H](O)[C@@H](CO)O3)c2[nH]1,0.812,0.572,0.453,0.247
Cc1nc(-c2cccnc2)sc1C(=O)Nc1ccccc1-c1cn2c(CN3CCOCC3)csc2n1,0.821,0.932,0.858,0.78

SMILES,fractional viability [1],fractional viability [2],fractional viability [3],fractional viability [4]
CN(C)CCCN1c2ccccc2Sc2ccc(Cl)cc21 [Chlorpromazine HCl],0.95,1.11,0.537,0.819
C[C@H](Nc1ncnc2[nH]cnc12)c1cc2ccc(F)cc2nc1-c1ccccn1,0.749,0.808,0.828,0.615
Nc1ccc(C(=O)Nc2cccc(-c3nc(N4CCOCC4)c4oc5ncccc5c4n3)c2)cn1,0.518,0.435,0.208,0.21
Cn1cc(-c2ccncc2)c(-c2ccc(OCc3ccc4ccccc4n3)cc2)n1,1.2,0.984,1.01,0.851
O=C(O)[C@H]1O[C@@H](Oc2cc3oc(-c4ccccc4)cc(=O)c3c(O)c2O)[C@H](O)[C@@H](O)[C@@H]1O [Baicalin],0.98,1.26,0.502,0.755
C=CC(=O)Nc1ccc(CN2C(=O)N(c3cc(OC)cc(OC)c3)Cc3cnc(Nc4ccc(N5CCN(C)CC5)cc4)nc32)cc1,0.926,0.803,0.0593,0.0423
Cc1cc(C)c(S(=O)(=O)n2cc(C)cc2C)c(C)c1,0.788,0.862,0.757,0.765
Cc1[nH]c2ccccc2c1CCNCc1ccc(/C=C/C(=O)NO)cc1 [Panobinostat (LBH589)],0.0758,0.104,0.0944,0.113
c1cncc(CN2CCC(n3ncc4c(N5CCOCC5)nc(-c5ccc6[nH]ccc6c5)nc43)CC2)c1,0.817,0.497,0.145,0.128
COC1CCN(C(=O)c2cc(Cc3n[nH]c(=O)c4ccccc34)ccc2F)CC1,0.8,0.94,0.578,0.83
CCCCN1CCCCC1C(=O)Nc1c(C)cccc1C (configuration not stated) [Bupivacaine HCl],0.856,1.11,0.92,0.924
CCOC(=O)c1[nH]c2cc(Cl)ccc2c1C(C(=O)NC(C)(C)C)N(C=O)Cc1ccc(Cl)cc1 (configuration not stated),0.658,0.864,0.399,0.463
Cc1ccc2c(=O)c3cccc(CC(=O)O)c3oc2c1C [DMXAA (Vadimezan)],0.966,1.06,1.04,1.04
C[C@H]1O[C@@H](Oc2c(-c3cc(O)c(O)c(O)c3)oc3cc(O)cc(O)c3c2=O)[C@@H](O)[C@@H](O)[C@@H]1O [Myricitrin],0.93,1.29,0.801,1.07
C=C1/C(=C\C=C2/CCC[C@]3(C)[C@@H]([C@H](C)/C=C/[C@H](C)C(C)C)CC[C@@H]23)C[C@@H](O)C[C@@H]1O [Doxercalciferol],0.853,1.15,0.387,0.676
Cc1nc(-c2ccc(OCC(C)C)c(C#N)c2)sc1C(=O)O [Febuxostat],0.939,1.22,0.921,1.1
CC(C(=O)O)c1ccc2c(c1)CC(=O)c1ccccc1S2 (configuration not stated) [Zaltoprofen],1.16,1.11,0.907,1.09
Oc1cc2c(cc1O)[C@@H]1c3ccc(O)c(O)c3OC[C@]1(O)C2 [Hematoxylin],0.878,1.11,0.861,0.977
